Source: the DeepSol protein solubility set

Assay: soluble on expression in E. coli; label from the status in PepcDB or PDB records

Row | Sequence | soluble on expression in E. coli
1 | AHHHHHHASAKWVCKICGYIYDEDAGDPDNGISPGTKFEELPDDWVCPICGAPKSEFEKLEDGSIRRRKKVRKLRGSHTHGWGCKKKHRGGGSKGGRGMAGTGKRNKSKWTWTIKYAPDHLGKRGFSRPPEVQREVRVVNLKFIDEHLDELMQMGIAYEEGGKIIVDVTQFADKVLGTGKLTRPLVIKARAFSPKAEEKIKAAGGEAVLV | soluble
2 | MKMKTKIFRVKGKFLMGDKLQPFTKELNAIREEEIYERLYSEFGSKHRVPRSKVKIEEIEEISPEEVQDPVVKALVQR | not soluble
3 | MRIINADGLILGRLASRVAKMLLEGEEVVIVNAEKAVITGNREVIFSKYKQRTGLRTLTNPRRGPFYPKRSDEIVRRTIRGMLPWKTDRGRKAFRRLKVYVGIPKEFQDKQLETIVEAHVSRLSRPKYVTVGEVAKFLGGKF | soluble
4 | MSDYFSKLKEHVVESTEINGCTPSIATATFNAPYEVARKTKMLGVTDSSLLNLPAWKRLQSLYEKYGNDSILSHFEKDHQRFQRYSIEIDLHSDDNFLFLDYSKSHINDEIKDALVALAEERGVRAFAKAMFDGQRVNSTENRAVLHVALRNRSNRPIIVDGKDVMSDVNNVLAQMKDFTERVRSGEWKGQTGKSIYNIVNIGIGGSDLGPVMVTEALKPFSKRDLHCFFVSNVDGTHMAEVLKQVNLEETIFIIASKTFTTQETLTNAMSARNALMSYLKENGISTDGAVAKHFVALSTNTEKVREFGIDTVNMFAFWDWVGGRYSVWSAIGLSVMLSIGYDNFVEFLTGAHVMDNHFASTPTEQNLPMMLALVGIWYNNFFGSETQAVLPYDQYLWRLPAYLQQLDMESNGKGVTKKSGAVAVQTGPIVFGEAGTNGQHAFYQLIHQGTKIIPCDFIGCVQTQNRVGDHHRTLMSNFFAQTEALMVGKNAEEVRQELVKSGMSGDAIENMIPHKTFTGSRPSNSILVNALTPRALGAIIAMYEHKVLVQGAIWGINSYDQWGVELGKVLAKSILPQLKSGNIVSDHDGSTNGLINMFNTRAHL | soluble
